Results reported in article PMC4336329 (PLoS ONE, 2015).
The whole screen tested about 310,000 compounds, of which about 14,000 (4.5%) showed an effect of 50% or more. The effect is printed as a negative number. Some of the results follow.

biological target: human ether-à-go-go-related gene (hERG) potassium channel (human, UniProt Q12809); test: primary screen, population patch clamp on CHO cells stably expressing hERG
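Further: peak tail current of the secondary pulse compared with the same well before compound.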

human ether-à-go-go-related gene (hERG) potassium channel, sequence (Q12809 whole entry, looked up): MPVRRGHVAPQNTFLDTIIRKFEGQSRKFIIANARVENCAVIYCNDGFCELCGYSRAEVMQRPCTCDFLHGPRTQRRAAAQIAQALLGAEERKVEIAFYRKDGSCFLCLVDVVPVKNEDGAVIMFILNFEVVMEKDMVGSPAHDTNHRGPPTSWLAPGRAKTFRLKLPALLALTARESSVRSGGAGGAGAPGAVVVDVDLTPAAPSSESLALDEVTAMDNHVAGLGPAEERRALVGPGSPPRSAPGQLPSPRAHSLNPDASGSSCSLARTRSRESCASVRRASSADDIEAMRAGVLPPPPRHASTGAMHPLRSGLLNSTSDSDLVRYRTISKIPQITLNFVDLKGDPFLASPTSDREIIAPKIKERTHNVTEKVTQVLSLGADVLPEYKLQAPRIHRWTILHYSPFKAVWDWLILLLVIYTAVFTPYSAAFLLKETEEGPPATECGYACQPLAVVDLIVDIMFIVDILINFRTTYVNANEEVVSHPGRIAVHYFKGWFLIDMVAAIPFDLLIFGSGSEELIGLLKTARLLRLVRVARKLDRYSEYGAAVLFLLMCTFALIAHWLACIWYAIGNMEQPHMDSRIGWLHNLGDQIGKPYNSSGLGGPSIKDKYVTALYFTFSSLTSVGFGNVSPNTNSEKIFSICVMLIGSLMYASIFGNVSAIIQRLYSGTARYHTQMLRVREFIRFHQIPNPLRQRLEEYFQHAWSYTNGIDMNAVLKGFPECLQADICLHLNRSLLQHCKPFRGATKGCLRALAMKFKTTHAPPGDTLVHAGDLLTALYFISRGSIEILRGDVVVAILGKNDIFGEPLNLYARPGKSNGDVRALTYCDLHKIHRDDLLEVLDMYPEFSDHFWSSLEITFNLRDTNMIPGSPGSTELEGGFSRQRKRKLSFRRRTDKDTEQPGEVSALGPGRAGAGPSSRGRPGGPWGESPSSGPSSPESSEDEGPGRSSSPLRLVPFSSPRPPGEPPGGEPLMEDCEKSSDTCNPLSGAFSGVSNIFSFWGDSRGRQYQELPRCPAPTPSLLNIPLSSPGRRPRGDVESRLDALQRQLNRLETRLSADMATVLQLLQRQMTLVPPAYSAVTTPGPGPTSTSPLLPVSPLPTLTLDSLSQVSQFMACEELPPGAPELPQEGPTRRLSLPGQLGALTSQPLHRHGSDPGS

Row | SMILES | hERG current change (%, negative = inhibition) at 10uM [%]
1 | O=C(CSc1nnc(COc2ccccc2Cl)o1)NC(=O)NCc1ccco1 | -8.18
2 | COc1cc(NC(=O)c2ccco2)c(C(=O)OCC(=O)Nc2ncc(Cl)cc2Cl)cc1OC | 7.81
3 | CCn1nc(NC(=O)c2ccncc2)c2cc3cccc(C)c3nc21 | 20.6
4 | COC(=O)c1sc(N2C(=O)C(O)=C(C(=O)c3ccc(C)o3)C2c2ccco2)nc1C (stereo not shown) | -4.73
5 | O=P(Nc1cccnc1)(Oc1ccccc1Cl)Oc1ccccc1Cl | -11
6 | CC(=O)N=C1SC2CS(=O)(=O)CC2N1c1ccc(-c2nc3ccc(C)cc3s2)cc1 (stereo not shown) | 8.72
7 | CCOC(=O)CSc1nc2c(c(=O)[nH]1)C(C)(CC)Cc1ccccc1-2 (stereo not shown) | -4.76
8 | COc1cccc(C(=O)Nc2ccc(NC(=O)Cc3ccccc3)cc2)c1 | -24.1
9 | CCCc1cc(=O)[nH]c(SCC(=O)Nc2cc3c(cc2C(C)=O)OCO3)n1 | 18.2
10 | COc1ccc(C(=O)N(c2ccccc2)C2C=CS(=O)(=O)C2)cc1 (stereo not shown) | -2.2
11 | COc1ccccc1NC(=O)c1cc(C)oc1C | 3.19
12 | CCc1nn(-c2ccccc2)c(N)c1C#N | -2.2
13 | COC(=O)c1ccc(C)c(NC(=O)c2nn(C)c(=O)c3ccccc23)c1 | 5.75
14 | CC1CCc2cc(F)ccc2N1C(=O)C1(C)CC1(Cl)Cl (stereo not shown) | 4.51
15 | CCSc1nnc(NC(=O)c2cc(-c3ccccc3O)n[nH]2)s1 | 3.44
16 | CCC(=O)NC(Nc1cc(C)cc(C)n1)(C(F)(F)F)C(F)(F)F | 9.81
17 | CCOC(=O)C1CCN(S(=O)(=O)c2cc3c(cc2C)NC(=O)CO3)CC1 | -54.9
18 | CC(C)C[C@H](NC(=O)CCn1nnc2ccccc2c1=O)C(=O)O | 1.62
19 | Nc1nc(Nc2cccc3ccccc23)nc(C2CCCC2=O)n1 (stereo not shown) | 12.2
20 | COc1cc(NC(=O)c2ccccc2NS(=O)(=O)c2ccc(Cl)s2)cc(OC)c1 | 2.62
21 | O=C(O)CN=C1NC2(CCCC2)Cc2ccccc21 | 9.41
22 | CC(C)c1nnc(NC(=O)CCC(=O)N2CCN(c3ccccn3)CC2)s1 | -7.7
23 | O=C(O)c1cccnc1-c1ncccc1C(=O)O | 1.75

Row | SMILES | hERG current change (%, negative = inhibition) at 10uM [%]
24 | Cc1ccc(S(=O)(=O)N/N=C\c2ccc([N+](=O)[O-])o2)cc1 | -2.21
25 | Cc1cc(C)n2nc(SCC(=O)N/N=C/c3ccccc3F)nc2n1 | 2.94
26 | CSCC(C)N1CCC(n2nccc2NC(=O)CCCc2ccccc2)CC1 (stereo not shown) | -47.5
27 | CCCCS(=O)(=O)Nc1ccc(C)cn1 | 12.8
28 | Cc1nn(CCC(=O)N2CCN(S(=O)(=O)c3ccccc3)CC2)c(C)c1C | 4.03
29 | CCCSc1nc2ccccc2n1CC(=O)O | 32.9
30 | CCCCOC(=O)Nc1cc(C)c(Cl)cc1OC | -8.48
31 | O=C(c1cn2ccccc2n1)N1CCc2c([nH]c3ccccc23)C1c1ccccn1 (stereo not shown) | -3.58
32 | O=c1c2ccccc2nc(/C=C/c2ccc(O)cc2)n1CCc1ccccc1 | -17.3
33 | Cc1ccc(Oc2ccccc2NC(=O)C2=COCCO2)cc1 | -9.32
34 | CCN(CC)S(=O)(=O)c1cc(NC(=O)COC(=O)Cn2cnc3ccccc32)ccc1C | 3.9
35 | O=C(Nc1nc(-c2ccc(S(=O)(=O)N3CCCC3)cc2)cs1)c1ccco1 | 4.72
36 | COc1ccc(C(=O)N2CCCC(c3nc(-c4cccs4)no3)C2)cc1OC (stereo not shown) | -23.4
37 | COc1cc(/C=N\Nc2cc(=O)n(C)c(=O)n2C)ccc1O | -9.27
38 | CCCCC(CC)C(=O)Nc1cccc(SC)c1 (stereo not shown) | -36.5
39 | N=c1c2c3c(sc2ncn1N)CCC3 | 1.66
40 | O=C(O)c1[nH]c2ccc([N+](=O)[O-])cc2c1-c1ccccc1 | -20
41 | O=C1Nc2ccc(S(=O)(=O)NCCC3=CCCCC3)c3cccc1c23 | 15
42 | O=C(N/N=C/c1ccc(OC(F)F)cc1)c1ccc(CSc2nc3ccccc3[nH]2)cc1 | -12.8
43 | CCN(CC(=O)Nc1ccc(NC(C)=O)cc1)C(=O)C1CCCC1 | -13.9
44 | COc1ccc(/C=N/NC(=O)c2ccoc2C)cc1OC | -9.75
45 | O=C(Cn1cncn1)NCCC(c1ccccc1)c1ccccc1 | 6.86
46 | CCSc1nnc2ccc(-c3ccc(OC)c(OC)c3)nn12 | -27.3

Row | SMILES | hERG current change (%, negative = inhibition) at 10uM [%]
47 | COc1ccccc1C(=O)NC(=O)COC(=O)C1CC2CCCC(C1)C2=O (stereo not shown) | -3.13
48 | O=C(N/N=C/c1c(O)n(CCc2ccccc2)c(=O)[nH]c1=O)c1ccncc1 | 7.9
49 | COc1ccc(/C(=N/O)C(C)(C)NO)cc1.Cl | 11.3
50 | CCc1c(C)nc2cc(-c3ccc(OC)cc3)[nH]n2c1=O | -10.4
51 | O=C1OCC2=C1C(c1ccc(F)cc1)Sc1ccccc1N2 (stereo not shown) | 14.5
52 | CCC(C)(C)NC(=O)C(c1ccccc1Cl)N(C(=O)CCC(=O)Nc1cc(C)on1)C1CC1 (stereo not shown) | 1.77
53 | Cc1ccc2cc(CN(C(=O)c3cccnc3)C(C)C)c(=O)[nH]c2c1 | -8.03
54 | O=C(NN1CCOCC1)c1ccccc1Br | 16.3
55 | COCc1nnc(NC(C)=O)s1 | 22
56 | O=C(CC1SC(=Nc2ccccc2)N(CCCO)C1=O)Nc1ccc(Cl)cc1 (stereo not shown) | -20
57 | CC(C)Cn1c(N)c(C(=O)COC(=O)c2cccnc2Cl)c(=O)n(C)c1=O | -31.7
58 | COc1ccc(OCC(O)CN2CCCC2)cc1 (stereo not shown) | 15.2
59 | CC(C)CNC(=O)NC(=O)COC(=O)Cn1cnc2ccccc2c1=O | 6.46
60 | Cc1nc2c(C)cccc2cc1C(=O)N/N=C/c1cccc([N+](=O)[O-])c1 | -2.92
61 | Clc1ccccc1CNc1nc2ccccc2n2cnnc12 | -7.72
62 | N#Cc1ccc(CN2CCN(C(=O)CC(NC(=O)c3ccccc3)c3ccccc3)CC2)cc1 (stereo not shown) | -81.2
63 | Cc1oc(S(=O)(=O)N2CCCCC2)cc1NC(=O)Nc1ccccc1 | 8.12
64 | CC1CCCC(C)N1C(=O)Cn1nnc(-c2ccc([N+](=O)[O-])cc2)n1 (stereo not shown) | -40.9
65 | CCOC(=O)CCNC(=O)N1CCCC(C(=O)c2cc(C)c(OC)c(C)c2)C1 (stereo not shown) | 5.81
66 | CCOC(=O)c1nnn(-c2nonc2N)c1-c1ccc(Br)cc1 | 14.6
67 | CCCCCC(O)CCC(=O)NNC1=CC(=O)CC(C)(C)C1 (stereo not shown) | 13.9
68 | CCOCC(=O)Nc1c(C(=O)Nc2ccc3c(c2)OCO3)oc2ccccc12 | 20.9
69 | O=C(CCC(=O)Nc1ccc(Br)cc1)N/N=C/c1ccccc1O | 2.33

Row | SMILES | hERG current change (%, negative = inhibition) at 10uM [%]
70 | Nc1nnc(-c2cccc([N+](=O)[O-])c2)o1 | 16.8
71 | CCOC(=O)c1cc(CC)sc1/N=C/c1c(O)ccc2ccccc12 | -9.45
72 | COCCNC(=O)/C(C#N)=C/c1cc(C)n(C2CCCCC2)c1C | -0.875
73 | CCOCCCNC(=S)Nc1cc(C)cc(C)c1 | 11
74 | CCOC(=O)C(Cc1c[nH]c2ccccc12)NC(=O)c1ccco1 (stereo not shown) | 1.55
75 | O=C(c1ccccc1)N1CCC(CC2CC(c3cccc(Br)c3)=NO2)(C(=O)NCC2CCCCC2)CC1 (stereo not shown) | -1.49
76 | COc1ccc2cc(C#N)c(N3CCOCC3)nc2c1 | -8.84
77 | CCOC(=O)c1c(S(=O)(=O)N2CCCCC2C)c(C)n(C)c1C (stereo not shown) | 8.39
78 | O=Nc1c2nc3ccccc3n(O)c-2c2ccccc12 | -5.65
79 | Cc1cc(Cl)c(S(=O)(=O)NCc2cccnc2)cc1OCC(N)=O | 10.1
80 | O=c1[nH]c(=O)n(Cc2ccccc2)c(O)c1/C=N/Nc1c(F)c(F)c(F)c(F)c1F | 3.83
81 | CCc1ccc(/C=C2/SC(N3CCOCC3)=NC2=O)cc1 | -13.8
82 | CCOC(=O)C1C(=O)NCC2CCCC21 (stereo not shown) | 5.38
83 | COc1ccc(N(CC(=O)NCc2ccccc2)S(C)(=O)=O)cc1 | -27.9
84 | O=C(c1cc2nc(-c3ccccc3)cc(C(F)(F)F)n2n1)N1CCN2CCCC2C1 (stereo not shown) | -30.3
85 | CCOC(=O)c1ccc(NC(=O)CCc2c(C)nc3ncnn3c2C)cc1 | -47
86 | CCOc1ccc(C(=O)NCCC(=O)N2CCC3(CC2)NCCc2[nH]cnc23)cc1OCC | 19.9
87 | O=C(NCCc1ccccc1)C(c1ccc(F)cc1)N(C(=O)c1csnn1)C1CC1 (stereo not shown) | -2.1
88 | O=C1N/C(=N/O)S/C1=C/c1cccnc1 | -22.5
89 | COc1ccccc1N(CC(=O)N1CCCCCC1)S(C)(=O)=O | 20
90 | COc1cc(C(=O)NCCSc2ccc(Cl)cc2)cc(OC)c1OC | -3.08
91 | CC(C)NC(=O)c1nn(C)c2ccccc12 | 3.87
